These are yes or no findings as the source states them, for the method shown. Some entries that bind do so weakly or less than the wild type. For some assays here: Sequences can lack the tags named with a protein.

For assay [1], the target named is FTS–HOOK3(451–718)–FHIP1B complex (human) (UniProt Q86VS8+Q9H8T0+Q8N612). The experiment in a line: cryo-EM structure; FH^451–718F with GST-KIF1C stalk 674–922; 4.8 Å, low resolution at the KIF1C stalk density; no atomic model; both purified.
The target of assay [2] is T1, FTS–HOOK3(571–718)–FHIP1B complex (human) (UniProt Q86VS8+Q9H8T0+Q8N612).
T1 sequence 1: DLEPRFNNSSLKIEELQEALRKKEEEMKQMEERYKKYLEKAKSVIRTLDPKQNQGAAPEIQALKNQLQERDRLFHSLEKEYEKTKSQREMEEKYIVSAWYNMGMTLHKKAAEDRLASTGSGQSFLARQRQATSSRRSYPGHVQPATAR
T1 sequence 2: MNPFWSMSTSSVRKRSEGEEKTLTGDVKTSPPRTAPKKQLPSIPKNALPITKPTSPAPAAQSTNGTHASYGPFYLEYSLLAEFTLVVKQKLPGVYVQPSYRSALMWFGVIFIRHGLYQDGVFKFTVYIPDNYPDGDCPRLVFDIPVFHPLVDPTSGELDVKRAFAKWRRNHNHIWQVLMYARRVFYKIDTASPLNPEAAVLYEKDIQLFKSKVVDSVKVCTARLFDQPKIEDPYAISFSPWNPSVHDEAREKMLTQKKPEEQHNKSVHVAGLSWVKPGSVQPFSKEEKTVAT
T1 sequence 3: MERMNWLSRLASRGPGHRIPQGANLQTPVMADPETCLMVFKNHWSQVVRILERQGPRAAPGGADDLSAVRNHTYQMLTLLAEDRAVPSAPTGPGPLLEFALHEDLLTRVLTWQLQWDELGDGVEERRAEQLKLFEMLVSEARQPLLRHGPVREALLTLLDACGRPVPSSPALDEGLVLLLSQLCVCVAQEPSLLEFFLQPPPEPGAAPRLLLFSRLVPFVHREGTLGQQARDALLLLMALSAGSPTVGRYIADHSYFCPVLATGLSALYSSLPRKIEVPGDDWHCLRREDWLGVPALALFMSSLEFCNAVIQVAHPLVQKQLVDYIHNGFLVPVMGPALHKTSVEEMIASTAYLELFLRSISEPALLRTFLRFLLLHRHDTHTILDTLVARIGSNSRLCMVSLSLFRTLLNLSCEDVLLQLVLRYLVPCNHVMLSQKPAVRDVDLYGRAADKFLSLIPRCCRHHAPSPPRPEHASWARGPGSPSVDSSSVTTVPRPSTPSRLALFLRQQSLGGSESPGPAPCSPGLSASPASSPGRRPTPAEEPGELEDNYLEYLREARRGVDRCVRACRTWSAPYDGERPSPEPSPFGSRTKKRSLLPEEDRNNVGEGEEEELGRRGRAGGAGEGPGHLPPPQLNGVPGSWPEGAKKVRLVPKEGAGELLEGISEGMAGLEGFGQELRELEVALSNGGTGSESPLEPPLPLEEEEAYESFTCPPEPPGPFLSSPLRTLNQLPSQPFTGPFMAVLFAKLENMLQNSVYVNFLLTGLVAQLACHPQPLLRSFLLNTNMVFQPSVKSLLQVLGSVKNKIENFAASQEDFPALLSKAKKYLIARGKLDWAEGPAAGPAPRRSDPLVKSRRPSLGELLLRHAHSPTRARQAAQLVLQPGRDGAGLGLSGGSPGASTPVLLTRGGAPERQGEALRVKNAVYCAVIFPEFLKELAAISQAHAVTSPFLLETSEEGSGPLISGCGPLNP
The assay can be described thus: cross-linking; cross-linking mass spectrometry; 10 mM EDC or 5 mM DSSO, room temperature, 60 min; full-length FHF or FH^571-718F with KIF1C stalk 674-922; both purified.

In assay [3] the target is full-length FTS–HOOK3–FHIP1B complex (human) (UniProt Q86VS8+Q9H8T0+Q8N612). The assay is described as above.
For assay [4], the target named is T2, FTS–HOOK3(629–718)–FHIP1B complex (human) (UniProt Q86VS8+Q9H8T0+Q8N612).
T2 sequence 1: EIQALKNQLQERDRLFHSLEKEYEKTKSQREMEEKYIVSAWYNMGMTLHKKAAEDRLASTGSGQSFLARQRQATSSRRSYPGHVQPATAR
T2 sequence 2: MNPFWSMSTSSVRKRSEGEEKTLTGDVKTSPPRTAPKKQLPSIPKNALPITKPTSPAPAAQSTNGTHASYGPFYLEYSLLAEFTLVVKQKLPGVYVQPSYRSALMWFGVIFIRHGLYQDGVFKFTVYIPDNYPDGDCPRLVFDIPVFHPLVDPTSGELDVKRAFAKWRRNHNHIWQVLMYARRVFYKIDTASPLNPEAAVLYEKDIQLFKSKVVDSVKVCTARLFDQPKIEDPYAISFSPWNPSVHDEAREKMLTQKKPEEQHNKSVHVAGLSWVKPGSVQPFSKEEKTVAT
T2 sequence 3: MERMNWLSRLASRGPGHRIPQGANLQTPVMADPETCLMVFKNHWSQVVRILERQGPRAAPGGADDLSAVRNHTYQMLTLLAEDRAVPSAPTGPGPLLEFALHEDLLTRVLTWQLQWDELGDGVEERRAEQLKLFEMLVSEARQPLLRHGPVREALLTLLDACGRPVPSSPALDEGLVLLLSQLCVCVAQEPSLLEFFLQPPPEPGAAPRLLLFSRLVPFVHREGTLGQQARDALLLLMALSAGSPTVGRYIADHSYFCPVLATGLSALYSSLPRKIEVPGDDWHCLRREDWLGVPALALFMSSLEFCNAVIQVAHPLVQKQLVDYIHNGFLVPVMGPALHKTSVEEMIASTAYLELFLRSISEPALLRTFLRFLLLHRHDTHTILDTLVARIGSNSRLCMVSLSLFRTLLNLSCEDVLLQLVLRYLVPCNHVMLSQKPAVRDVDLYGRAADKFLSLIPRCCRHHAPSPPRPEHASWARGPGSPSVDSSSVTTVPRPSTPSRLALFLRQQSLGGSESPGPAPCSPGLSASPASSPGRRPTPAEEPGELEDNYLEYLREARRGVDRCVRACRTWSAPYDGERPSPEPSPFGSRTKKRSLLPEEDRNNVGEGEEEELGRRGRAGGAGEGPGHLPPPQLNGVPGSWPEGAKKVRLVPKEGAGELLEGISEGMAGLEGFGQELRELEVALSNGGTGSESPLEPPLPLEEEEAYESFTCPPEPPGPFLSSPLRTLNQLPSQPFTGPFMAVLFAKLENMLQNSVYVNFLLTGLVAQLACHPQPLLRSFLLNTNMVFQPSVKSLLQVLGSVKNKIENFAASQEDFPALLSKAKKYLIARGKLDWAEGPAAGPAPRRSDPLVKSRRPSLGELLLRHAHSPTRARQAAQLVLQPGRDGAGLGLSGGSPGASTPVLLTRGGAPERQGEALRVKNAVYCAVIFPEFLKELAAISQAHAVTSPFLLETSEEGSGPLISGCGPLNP
The assay can be described thus: SEC; typically 5 µM FHF construct and 10 µM KIF1C stalk construct in GF150 (25 mM HEPES pH 7.2, 150 mM KCl, 1 mM MgCl2, 1 mM DTT); Superose 6 Increase 3.2/300; both purified.

Assay [5] deals with T3, full-length HOOK2 (human), Q96ED9.
T3 chain: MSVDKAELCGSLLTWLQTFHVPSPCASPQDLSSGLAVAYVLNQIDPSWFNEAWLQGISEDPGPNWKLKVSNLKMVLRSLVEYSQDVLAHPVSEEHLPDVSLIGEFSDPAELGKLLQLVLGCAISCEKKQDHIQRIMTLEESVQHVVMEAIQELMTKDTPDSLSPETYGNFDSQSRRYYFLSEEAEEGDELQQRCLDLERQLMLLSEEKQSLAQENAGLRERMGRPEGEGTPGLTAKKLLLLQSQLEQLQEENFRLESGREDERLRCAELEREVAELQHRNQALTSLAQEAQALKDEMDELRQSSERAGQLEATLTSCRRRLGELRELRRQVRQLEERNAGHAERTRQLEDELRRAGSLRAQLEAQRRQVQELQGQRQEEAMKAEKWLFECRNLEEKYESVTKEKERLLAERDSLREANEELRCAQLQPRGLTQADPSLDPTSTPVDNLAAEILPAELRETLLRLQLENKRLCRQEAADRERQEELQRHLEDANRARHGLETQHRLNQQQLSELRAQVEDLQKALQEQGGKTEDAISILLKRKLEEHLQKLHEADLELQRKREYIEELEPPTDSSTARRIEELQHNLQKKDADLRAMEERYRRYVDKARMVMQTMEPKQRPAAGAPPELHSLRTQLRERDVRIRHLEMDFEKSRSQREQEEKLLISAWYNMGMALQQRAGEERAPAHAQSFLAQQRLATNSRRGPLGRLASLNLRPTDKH
The assay can be described thus: co-expression and co-purification; strep-HOOK2 or strep-HOOK3 (full length or C-terminal fragment) co-expressed with FTS and FHIP1B or FHIP2A in Sf9; Strep-Tactin Sepharose, PreScission cleavage, Superose 6; SDS-PAGE; complexes of the fragments also seen in cryo-EM 2D class averages. The settings on record: remark: other sources report otherwise.

B1: GST-KIF1C stalk 674-922 (domain or fragment, UniProt O43896 674-922)
chain: SDSGDDSDKRSCEESWRLISSLREQLPPTTVQTIVKRCGLPSSGKRRAPRRVYQIPQRRRLQGKDPRWATMADLKMQAVKEICYEVALADFRHGRAEIEALAALKMRELCRTYGKPDGPGDAWRAVARDVWDTVGEEEGGGAGSGGGSEEGARGAEVEDLRAHIDKLTGILQEVKLQNSSKDRELQALRDRMLRMERVIPLAQDHEDENEEGGEVPWAPPEGSEAAEEAAPSDRMPSARPPSPPLSSWE
Consider B1, for which the binding entry in assay [1], in assay [2] and in assay [3] was “binds” throughout.

B2: GST–KIF1C stalk SGD construct (domain or fragment, UniProt O43896 720-841)
chain: RAPRRVYQIPQRRRLQGKDPRWATMADLKMQAVKEICYEVALADFRHGRAEIEALAALKMRELCRTYGKPDGPGDAWRAVARDVWDTVGEEEGGGAGSGGGSEEGARGAEVEDLRAHIDKLT
With B2, in assay [4], the binding entry was “no binding”.

B3: FHIP1B, Q8N612 1-972 (protein)
chain: MERMNWLSRLASRGPGHRIPQGANLQTPVMADPETCLMVFKNHWSQVVRILERQGPRAAPGGADDLSAVRNHTYQMLTLLAEDRAVPSAPTGPGPLLEFALHEDLLTRVLTWQLQWDELGDGVEERRAEQLKLFEMLVSEARQPLLRHGPVREALLTLLDACGRPVPSSPALDEGLVLLLSQLCVCVAQEPSLLEFFLQPPPEPGAAPRLLLFSRLVPFVHREGTLGQQARDALLLLMALSAGSPTVGRYIADHSYFCPVLATGLSALYSSLPRKIEVPGDDWHCLRREDWLGVPALALFMSSLEFCNAVIQVAHPLVQKQLVDYIHNGFLVPVMGPALHKTSVEEMIASTAYLELFLRSISEPALLRTFLRFLLLHRHDTHTILDTLVARIGSNSRLCMVSLSLFRTLLNLSCEDVLLQLVLRYLVPCNHVMLSQKPAVRDVDLYGRAADKFLSLIPRCCRHHAPSPPRPEHASWARGPGSPSVDSSSVTTVPRPSTPSRLALFLRQQSLGGSESPGPAPCSPGLSASPASSPGRRPTPAEEPGELEDNYLEYLREARRGVDRCVRACRTWSAPYDGERPSPEPSPFGSRTKKRSLLPEEDRNNVGEGEEEELGRRGRAGGAGEGPGHLPPPQLNGVPGSWPEGAKKVRLVPKEGAGELLEGISEGMAGLEGFGQELRELEVALSNGGTGSESPLEPPLPLEEEEAYESFTCPPEPPGPFLSSPLRTLNQLPSQPFTGPFMAVLFAKLENMLQNSVYVNFLLTGLVAQLACHPQPLLRSFLLNTNMVFQPSVKSLLQVLGSVKNKIENFAASQEDFPALLSKAKKYLIARGKLDWAEGPAAGPAPRRSDPLVKSRRPSLGELLLRHAHSPTRARQAAQLVLQPGRDGAGLGLSGGSPGASTPVLLTRGGAPERQGEALRVKNAVYCAVIFPEFLKELAAISQAHAVTSPFLLETSEEGSGPLISGCGPLNP
On to B3, for which, in assay [5], the binding result is reported as “binds”.
